# Source: publication PMC4336329 (PLoS ONE, 2015)
# The campaign covered roughly 310,000 compounds. About 2,200 (0.71%) showed an effect of 50% or more. The effect is printed as a negative number. Some of the results follow.
# Target: human ether-à-go-go-related gene (hERG) potassium channel (human, UniProt Q12809)
# Assay: primary screen, population patch clamp on CHO cells stably expressing hERG
# human ether-à-go-go-related gene (hERG) potassium channel, sequence (Q12809 whole entry, looked up): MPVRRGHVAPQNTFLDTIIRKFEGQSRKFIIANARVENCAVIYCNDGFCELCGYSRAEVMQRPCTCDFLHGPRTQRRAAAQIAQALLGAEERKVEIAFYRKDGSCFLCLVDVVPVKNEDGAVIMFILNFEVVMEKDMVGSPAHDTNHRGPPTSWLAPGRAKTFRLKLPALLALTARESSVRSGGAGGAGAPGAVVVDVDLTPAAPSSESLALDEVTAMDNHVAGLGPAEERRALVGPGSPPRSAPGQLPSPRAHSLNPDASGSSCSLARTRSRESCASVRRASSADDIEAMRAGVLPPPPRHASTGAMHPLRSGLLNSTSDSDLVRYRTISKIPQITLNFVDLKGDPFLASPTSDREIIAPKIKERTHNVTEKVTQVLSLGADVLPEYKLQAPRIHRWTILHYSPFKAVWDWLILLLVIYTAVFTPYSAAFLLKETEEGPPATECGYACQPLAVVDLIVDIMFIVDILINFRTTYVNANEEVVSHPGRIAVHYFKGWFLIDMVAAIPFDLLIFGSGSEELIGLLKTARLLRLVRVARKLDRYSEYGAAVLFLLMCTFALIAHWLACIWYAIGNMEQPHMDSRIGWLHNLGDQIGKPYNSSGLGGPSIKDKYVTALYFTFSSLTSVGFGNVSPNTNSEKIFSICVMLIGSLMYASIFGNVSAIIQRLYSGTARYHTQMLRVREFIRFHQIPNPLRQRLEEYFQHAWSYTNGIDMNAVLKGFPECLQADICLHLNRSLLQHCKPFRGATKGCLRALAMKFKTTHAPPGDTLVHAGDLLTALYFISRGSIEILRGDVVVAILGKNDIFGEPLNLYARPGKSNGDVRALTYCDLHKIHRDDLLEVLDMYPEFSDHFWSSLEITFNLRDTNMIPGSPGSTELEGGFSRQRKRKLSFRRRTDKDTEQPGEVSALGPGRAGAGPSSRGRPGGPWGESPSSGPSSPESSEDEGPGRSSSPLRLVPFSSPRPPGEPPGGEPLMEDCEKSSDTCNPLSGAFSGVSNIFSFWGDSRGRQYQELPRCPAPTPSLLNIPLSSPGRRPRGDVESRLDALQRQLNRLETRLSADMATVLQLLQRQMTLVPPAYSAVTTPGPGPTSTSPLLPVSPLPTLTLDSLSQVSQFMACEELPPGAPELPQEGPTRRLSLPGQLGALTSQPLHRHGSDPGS
row,SMILES,"hERG current change (%, negative = inhibition) at 1uM"
1,O=C(CN1CCCCCC1)Nc1cc([N+](=O)[O-])ccc1Cl,13.4%
2,CN1CCCC1CCNc1ccc2sc3ccccc3c(=O)c2c1 (stereo not shown),3.29%
3,Cc1ccc(N2C(=O)SC(N(CC(=O)O)c3ccc(C)cc3)C2=O)cc1 (stereo not shown),12.9%
4,COc1ccc(-c2nnc3ccc(SCC(=O)N4CCCCCC4)nn23)cc1OC,9.4%
5,CCn1c(SCC(=O)Nc2sccc2C(N)=O)nnc1C1CC1,8.64%
6,Cn1c2c(c(=O)n(C)c1=O)CN(CCc1ccccc1)CN2,1.89%
7,C=CCc1ccc(OCCn2nnc3ccccc32)c(OC)c1,3.6%
8,CCC(C)(NC(=O)CNC(C)=O)C(=O)NC1CCCCC1 (stereo not shown),2.79%
9,O=C(c1nn2c(C(F)(F)F)cc(-c3ccco3)nc2c1Br)N1CCCc2ccccc21,5.48%
10,CC(C(=O)Nc1ccc(S(=O)(=O)N2CCOCC2)cc1)N1C(=O)C2CC=CCC2C1=O (stereo not shown),14.3%
11,COc1ccccc1OCc1nc(-c2cccc([N+](=O)[O-])c2)no1,-1.1%
12,O=S(=O)(NC1CCCCC1Sc1ncccn1)c1ccccc1 (stereo not shown),5.51%
13,O=C(Nc1ccccn1)c1cccc(S(=O)(=O)N2CCc3ccccc3C2)c1,-6.16%
14,Nc1c(S(=O)(=O)c2ccccc2)csc1C(=O)O,-7.3%
15,CCN(CC(=O)Nc1ccc(NC(C)=O)cc1)C(=O)c1oc2c(ccc3ccccc32)c1C,9.65%
16,COC(=O)c1ccc(NC(=O)c2ccco2)cc1,2.71%
17,Cc1sc(-c2cccnc2)nc1OC(=O)C1CC1,19.4%
18,CC(=O)Nc1ccc(NC(=O)CSc2nnnn2-c2ccc(F)cc2)cc1,12.4%
19,Cc1ccc(C)c(Nc2c(F)c(F)c(F)c(F)c2C(=O)O)c1,12.5%
20,CCCc1nnc(NC(=O)CCCC(=O)O)s1,13.5%

row,SMILES,"hERG current change (%, negative = inhibition) at 1uM"
1,COC(=O)c1ccc(C(=O)OC)c(NC(=S)N2CCOCC2)c1,7.55%
2,FC(F)(F)c1ccccc1NC(=S)NC1CCN(Cc2ccccc2)CC1,10.4%
3,C[C@H](NC(=O)c1ccccc1F)C(=O)N1CCC2(CC1)NCCc1[nH]cnc12,12%
4,O=C(NCC(c1ccco1)N1CCc2ccccc2C1)C(=O)Nc1cc(F)ccc1F (stereo not shown),-20.7%
5,Cc1ncsc1CCC(=O)N1CCCC(Nc2ccc(F)c(F)c2)C1 (stereo not shown),1.78%
6,CCc1ccccc1NC(=O)Cn1ccn(-c2ccc(OC)cc2)c(=O)c1=O,11.6%
7,O=C(NC(c1ccccc1)c1ccccc1)c1ccc(S(=O)(=O)C(F)F)cc1,14.5%
8,COc1ccc(CCNC(=O)COc2ccc(C)nc2[N+](=O)[O-])cc1OC,2.94%
9,COc1ccccc1-n1c(SCC(=O)N2CCCC2)nc2cccnc21,5.21%
10,CC1(C)CC(=O)C2=C(C1)NCN(Cc1ccccc1)C2,-2.47%
11,COCCOC1CCN(Cc2cn(Cc3ccccc3)nc2-c2cc3ccccc3o2)CC1,-20.7%
12,COCc1cc(=O)[nH]c(-c2csc(C)n2)n1,12%
13,CCCN(CC#CCO)CCC,7.67%
14,CC(=O)N1CCc2cc(S(=O)(=O)NCC(=O)NCc3ccccc3Cl)ccc21,4.4%
15,CCOc1ccccc1C1SCC(=O)Nc2c1c(=O)[nH]n2C(CC)CC (stereo not shown),9.43%
16,CCc1ccc(C(C(=O)NC2CCCC2)N(C(=O)c2csnn2)C2CC2)cc1 (stereo not shown),7.66%
17,Cc1cccc(CCNC(=O)c2oc3c(C)c(C)ccc3c2C)n1,16.8%
18,COc1ccc(S(=O)(=O)NCCc2cn3cccc(C)c3n2)cc1OC,13.7%
19,C/C(N)=C(/C#N)C(=O)COC(=O)Cc1coc2cc(C)ccc12,10.9%
20,CSCC[C@H](NC(=O)OC(C)(C)C)C(=O)N/N=C/c1c(C)[nH]c(=O)[nH]c1=O,22.5%

row,SMILES,"hERG current change (%, negative = inhibition) at 1uM"
1,CC(C)Sc1nc2c([nH]1)c(=N)ncn2Cc1ccccc1,8.86%
2,CCn1c(SCC(=O)NCCc2ccccc2)nc2sc3c(c2c1=O)CCN(C)C3,10.4%
3,CC(=O)Nc1ccc(S(=O)(=O)Nc2ccccc2C(=O)N2CCOCC2)cc1,15.9%
4,COc1ccc(CCN2C(=O)c3ccncc3C2=O)cc1OC,8.98%
5,Cc1cc(Cl)ccc1NC(=S)N1CCN(Cc2ccc3c(c2)OCO3)CC1,10.3%
6,O=C(c1ccc(Cl)cc1)N1CCCC(C(=O)N2CCCCC2)C1 (stereo not shown),13.8%
7,CCCCNC(=S)N(C)/N=C/c1ccc(OCC(=O)Nc2c(C)cc(C)cc2C)c(OC)c1,7.54%
8,COC(=O)C(Cc1c[nH]c2ccccc12)NC(=O)C1CC1 (stereo not shown),6.74%
9,Cc1cccc(C2NS(=O)(=O)N=C2N)c1 (stereo not shown),5.09%
10,CCN=C1SC(CC(=O)NC(N)=O)C(=O)N1CC (stereo not shown),10.4%
11,Cc1ccc(-n2cc(S(=O)(=O)c3ccc(C)cc3)[nH]c2=O)cc1,9.05%
12,CN(Cc1ccccc1)C(=O)C1CCCN1S(=O)(=O)c1ccc2c(c1)n(C)c(=O)c(=O)n2C (stereo not shown),9.53%
13,COc1cc(Cc2nc3ccc(S(=O)(=O)N4CCOCC4)cc3[nH]2)cc(OC)c1OC,14.4%
14,COC(=O)C1(C(F)(F)F)N=C(C(F)(F)F)Nc2ccc(Cl)cc21 (stereo not shown),9.65%
15,COc1ccc(-c2cc(C(F)(F)F)c(C#N)c(SCC(=O)O)n2)cc1,5.45%
16,CC1(C)OC(c2ccccc2)=C/C(=C/C=C2C(=O)NC(=O)NC2=O)O1,13.7%
17,Cc1cc(C(=O)Nc2c(F)cc(F)cc2Br)no1,13.2%
18,Cc1cc(Cl)ccc1OCCNC(=S)NC(=O)c1cccnc1,12.3%
